Our source for the AUC and IC50 values is the supplement of paper PMC4967469.

Assay in all cases: Viability of human cancer cell lines after 72 h of drug (GDSC screen)
Compound in experiment [1]: COc1cc(N2CCC(C(N)=O)CC2)ccc1Nc1nc(N)c(Cl)c(Nc2ccccc2S(=O)(=O)C(C)C)n1 [HG-5-88-01]
Particulars: top dose 10 µM; top dose inferred. The protocol: (§1)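 Human cancer cell lines in 384-well plates, medium with 10% serum, drug for 72 h over a 256-fold dose range (nine 2-fold or five 4-fold steps up to the top dose). Adherent lines were fixed and stained with the nucleic acid dye Syto60, suspension lines read with resazurin; signal relative to control wells, capped at 0 and 100%. One two-parameter sigmoid per drug and line, fitted in a mixed model over all curves with the slope shared within a line.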

Compound in experiment [2]: CC/C(=C(\c1ccccc1)c1ccc(OCCN(C)C)cc1)c1ccccc1 [Tamoxifen]
Particulars: top dose 5 µM. The protocol:
as §1

Compound in experiment [3]: Cc1ccc(NC(=O)c2ccc(CN3CCN(C)CC3)cc2)cc1Nc1nc(-c2cccnc2)cs1 [Masitinib]
Particulars: top dose 20 µM. The protocol: as §1

Compound in experiment [4]: CCCC(=O)OCc1ccc(OC(=O)/C=C(C)/C=C/C=C(C)/C=C/C2=C(C)CCCC2(C)C)cc1 [VNLG/124]
Conditions: top dose 5.12 µM; top dose inferred. The protocol: as §1

Compound in experiment [5]: O=S(=O)(O)c1ccc2cc(N=Nc3cc(S(=O)(=O)O)c4cccnc4c3O)ccc2c1 [NSC-87877]
Conditions: top dose 16 µM; top dose inferred. The protocol: as §1

Compound in experiment [6]: O=C(/C=C/c1ccc(CN(CCO)CCc2c[nH]c3ccccc23)cc1)NO [LAQ824]
Conditions: top dose 1.024 µM; top dose inferred. The protocol: as §1

Compound in experiment [7]: O=C(Nc1cccc(Nc2ncc(Br)c(NCCc3cnc[nH]3)n2)c1)N1CCCC1 [BX-912]
Conditions: top dose 10.24 µM; top dose inferred. The protocol:
as §1

Compound in experiment [8]: Cc1c(N)nc([C@H](CC(N)=O)NC[C@H](N)C(N)=O)nc1C(=O)N[C@H](C(=O)N[C@H](C)[C@@H](O)[C@H](C)C(=O)N[C@H](C(=O)NCCc1nc(-c2nc(C(=O)NCCC[S+](C)C)cs2)cs1)[C@@H](C)O)[C@@H](OC1OC(CO)C(O)C(O)C1OC1OC(CO)C(O)C(OC(N)=O)C1O)c1cnc[nH]1 [Bleomycin]
The protocol:
as §1

Compound in experiment [9]: O=C(Nc1ccc(OC(F)(F)F)cc1)c1sccc1NCc1ccnc2ccccc12 [OSI-930]
Particulars: top dose 10.24 µM. The protocol:
as §1

The mark [10] stands for this setting: top dose 50 µM, screen: GDSC drug entry 1378, top dose inferred.
[11] abbreviates: top dose 64 µM, screen: GDSC drug entry 190.

The IC50 comes from the fitted curve, where viability falls to half of the control; a fit beyond the top or the lowest dose is shown as a bound at that dose. AUC, from the same fit, is the share of area under the viability curve across the 256-fold dose range; the more sensitive the line, the further below 1. For some assays here: Any top dose called inferred was derived from the fitted curves, not read from the paper. For some assays here: An entry number marks a drug with two screens in the source, which often give different values. Where only a bound is given, the exact number is not on record here.

Usually IC50 stands for the concentration at which inhibition is half-maximal. For NB7 (neuroblastoma, adherent), the AUC was 0.985 in experiment [1]; 0.948 in [2]; 0.79 in experiment [3]; 0.98 in [4]; 0.977 in experiment [5]; 0.367 in experiment [6]. Besides, the AUC in experiment [7] is 0.778; in [8] (setting [10]) it was 0.967; in experiment [8] (setting [11]), 0.888; in [9], 0.887. The half-maximal inhibitory concentration (IC50) in experiment [1] was above 10 µM; in [2], above 5 µM; in experiment [3], 9.38 µM; in experiment [4], above 5.12 µM; in experiment [5] it was above 16 µM; in [6] it was 0.027 µM. Besides, the IC50 in experiment [7] is 4.34 µM; in experiment [8] (setting [10]), above 50 µM; in experiment [8] (setting [11]) it was above 64 µM; in experiment [9], above 10.2 µM.

H2804 (mesothelioma, adherent): the AUC in [1] came to 0.914; in experiment [2], 0.984; in [3] it was 0.85; in [4], 0.984; in [5], 0.973; in [6], 0.504. The AUC is 0.868 in [7], 0.781 in [8] (setting [11]) and 0.932 in [9]. Further, the IC50 in experiment [1] is above 10 µM; in [2], above 5 µM; in experiment [3], 17.4 µM; in experiment [4], above 5.12 µM; in experiment [5], above 16 µM; in [6], 0.0658 µM. Also, the IC50 in [7] is above 10.2 µM; in experiment [8] (setting [11]) it was 29.2 µM; in experiment [9], above 10.2 µM.

For Hs940-T (melanoma, adherent), the AUC was determined as 0.839 in [1]; 0.981 in experiment [2]; 0.764 in experiment [3]; 0.983 in [4]; 0.983 in experiment [5]; 0.477 in experiment [6]. The AUC in experiment [7] was 0.711; in [8] (setting [10]), 0.764; in experiment [9] it was 0.968. The half-inhibitory concentration (IC50) was 9.06 µM in [1]; above 5 µM in experiment [2]; 8.74 µM in [3]; above 5.12 µM in experiment [4]; above 16 µM in experiment [5]; 0.0547 µM in experiment [6]. Also, the IC50 in [7] is 2.9 µM; in [8] (setting [10]), 21.9 µM; in experiment [9] it was above 10.2 µM.

For GP5d (large intestine, adherent), the AUC in experiment [1] is 0.934; in experiment [2] it was 0.99; in experiment [3], 0.86; in experiment [4] it was 0.985; in [5], 0.991; in experiment [6] it was 0.437. Besides, the AUC was 0.918 in [7], 0.877 in experiment [8] (setting [10]), 0.642 in [8] (setting [11]) and 0.951 in experiment [9]. Moreover, the IC50 is above 10 µM in experiment [1]; above 5 µM in [2]; 14 µM in experiment [3]; above 5.12 µM in [4]; above 16 µM in experiment [5]; 0.0439 µM in experiment [6]. The half-inhibitory concentration (IC50) in [7] was above 10.2 µM; in experiment [8] (setting [10]), 41.2 µM; in experiment [8] (setting [11]), 9.42 µM; in [9], above 10.2 µM.

With IM-95 (stomach, adherent), the AUC worked out at 0.962 in experiment [1]; 0.984 in experiment [2]; 0.915 in experiment [3]; 0.94 in experiment [4]; 0.986 in [5]; 0.274 in experiment [6]. Also, the AUC was 0.898 in experiment [7], 0.815 in experiment [8] (setting [10]), 0.278 in [8] (setting [11]) and 0.975 in experiment [9]. The 50% inhibitory concentration (IC50) in experiment [1] is above 10 µM; in [2], above 5 µM; in experiment [3] it was above 20 µM; in [4] it was above 5.12 µM; in experiment [5], above 16 µM; in experiment [6], 0.0138 µM. Besides, the IC50 in [7] was above 10.2 µM; in experiment [8] (setting [10]), 29.8 µM; in [8] (setting [11]), 0.896 µM; in experiment [9], above 10.2 µM.

Take LB996-RCC (kidney, adherent): the AUC came out at 0.902 in experiment [1]; 0.977 in [2]; 0.98 in experiment [3]; 0.973 in experiment [4]; 0.983 in [5]; 0.541 in experiment [6]. The AUC in [7] is 0.973; in experiment [8] (setting [10]) it was 0.201; in experiment [8] (setting [11]) it was 0.119; in experiment [9] it was 0.973. The IC50 was above 10 µM in experiment [1]; above 5 µM in [2]; above 20 µM in experiment [3]; above 5.12 µM in experiment [4]; above 16 µM in experiment [5]; 0.0846 µM in experiment [6]. The IC50 was above 10.2 µM in experiment [7], 0.341 µM in experiment [8] (setting [10]), below 0.25 µM in experiment [8] (setting [11]) and above 10.2 µM in experiment [9].
